Results taken from PubChem BioAssay AID1030 (National Center for Advancing Translational Sciences (NCATS), 2008).
Screen size: about 220,000 compounds; about 16,000 (7.3%) were called active. The inconclusive results got no clear call from the source; some entries with a clear call stand among them for comparison. Calls follow the shape of the dose curve; as a rule, active = well fitted inhibition curve with a large enough effect (not every such curve was filed as active); inconclusive = small, poorly fitted or top-dose-only effect, or another doubt; inactive = no such curve, though single readings can be large or run the other way. Potencies of inconclusive entries are left out as doubtful fits.

What follows are molecules tested against Aldehyde dehydrogenase 1A1 (Homo sapiens) (UniProt P00352) (assay: qHTS Assay for Inhibitors of Aldehyde Dehydrogenase 1 (ALDH1A1)). Settings: Purified ALDH1A1, NADH fluorescence, propionaldehyde substrate; series mostly up to 75.3 µM.
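For activity, negative = inhibition in this document: plate controls were no enzyme wells and a reference inhibitor.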
Potency is read from the fitted curve at half-maximal effect; tags tell the direction and shape of the fitted curve.

UniProt P00352, sequence (P00352 whole entry, looked up): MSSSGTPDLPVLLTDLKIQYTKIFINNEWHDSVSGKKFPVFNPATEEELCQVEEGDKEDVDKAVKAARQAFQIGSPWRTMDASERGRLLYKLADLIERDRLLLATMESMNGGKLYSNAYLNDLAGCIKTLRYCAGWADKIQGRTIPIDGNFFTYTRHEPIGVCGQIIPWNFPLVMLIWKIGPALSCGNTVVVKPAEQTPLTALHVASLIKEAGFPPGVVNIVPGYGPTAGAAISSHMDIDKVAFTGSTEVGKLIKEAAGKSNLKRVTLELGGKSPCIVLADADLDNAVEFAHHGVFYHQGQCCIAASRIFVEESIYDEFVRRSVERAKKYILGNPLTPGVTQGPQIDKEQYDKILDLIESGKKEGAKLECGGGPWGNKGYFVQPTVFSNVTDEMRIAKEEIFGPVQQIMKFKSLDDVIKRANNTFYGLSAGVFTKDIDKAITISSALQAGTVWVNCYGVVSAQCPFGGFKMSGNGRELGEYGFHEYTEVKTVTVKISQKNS

Row | Compound | Potency | activity, negative = inhibition
1 | CCN(CCO)Cc1csc2ccccc12 | inconclusive [inhibitor, single point] | –
2 | CC1Cc2ccccc2N1S(=O)(=O)c1cccc(C(=O)c2nccn2C)c1 (stereo unspecified) | inconclusive [inhibitor, single point] | –
3 | CCc1nc(-c2cc3ccc(C)cc3[nH]c2=O)no1 | inconclusive [inhibitor, partial curve] | –
4 | CN(C)c1ccc(NC(=O)CSc2nc(N)c(C(=O)Nc3ccc(N(C)C)cc3)s2)cc1 | active: 25.1 µM | –
5 | O=C(Nc1ccc(S(=O)(=O)Nc2ncccn2)cc1)c1cncc(Br)c1 | inactive | –
6 | O=C(CO/N=C/c1ccc2c(c1)OCO2)Nc1cccc(Br)c1 | inconclusive [inhibitor, single point] | –
7 | CCCc1nc(SCC(=O)NCc2ccco2)c2c(=O)n(C)c(=O)n(C)c2n1 | inactive | –
8 | O=C(O)CCc1ccc(-c2cccs2)n1NC(=O)c1ccc(Cl)cc1 | inconclusive [inhibitor, single point] | –
9 | O=C(CSCc1ccccc1)Nc1ccc2c(c1)C(=O)NC2=O | inconclusive [inhibitor, single point] | –
10 | Cc1sc2nc3ccc(N4CCCCC4)nn3c(=O)c2c1C | inconclusive [inhibitor, partial curve] | –
11 | O=C(CSc1ccc([N+](=O)[O-])cc1)NCC1CCCCC1 | active: 28.2 µM | –
12 | NNc1ccc(Cl)nn1 | active: 17.8 µM | –
13 | O=C(Nc1cc(=O)c2ccccc2o1)N1CCCCC1 | inconclusive [inhibitor, partial curve] | –
14 | CN1C(=O)/C(=C/c2cn(CC(=O)N3CCCCC3)c3ccccc23)c2ccccc21 | inactive | –
15 | O=C(NC1CCCCCCC1)c1cc(COc2ccc3ncccc3c2)on1 | inconclusive [inhibitor, single point] | –
16 | CN(C)c1ccc(C(CNS(=O)(=O)c2ccc(F)cc2)c2c[nH]c3ccccc23)cc1 (stereo unspecified) | inconclusive [inhibitor, single point] | –
17 | CCc1nnc(N/N=C/c2c(C)[nH]c3ccccc23)n1N | inactive | –
18 | COc1ccc(OC)c(-c2csc(N(Cc3ccco3)C(=O)c3cccs3)n2)c1 | inconclusive [inhibitor, single point] | –
19 | O=[N+]([O-])c1cccc(Cl)c1NCCNS(=O)(=O)c1ccccc1 | active: 11.2 µM | –
20 | S=c1nc(-c2ccccc2)[nH]c2ccccc12 | inconclusive [inhibitor, single point] | –
21 | O=C(Nc1ccccc1)OC(CN1CCCCC1)C(F)(F)F (stereo unspecified) | inactive | –
22 | COc1ccc(-c2nn(-c3ccccc3)cc2/C=N/Nc2ccc3ccccc3n2)cc1OC | inconclusive [inhibitor, partial curve] | –
23 | COc1ccc(OCc2cccc(C(=O)Nc3cc(C)on3)c2)cc1 | inactive | –

Row | Compound | Potency | activity, negative = inhibition
24 | CC(C)CCNC(=S)Nc1ccc2nc3n(c(=O)c2c1)CCCCC3 | inconclusive [inhibitor, partial curve] | –
25 | Cc1ccc(S(=O)(=O)CCC(=O)O)cc1C | active: 8.91 µM | –
26 | COc1ccc(-c2cc(C(F)(F)F)n3nc(C(=O)Nc4cc(C)on4)cc3n2)cc1OC | inconclusive [inhibitor, single point] | –
27 | Cc1ccc(OCc2ccc(C(=O)O)o2)c([N+](=O)[O-])c1 | inconclusive [inhibitor, single point] | –
28 | CC(C)c1ccc(NC(=O)NCc2ccc(F)cc2)cc1 | inactive | –
29 | O=C1NC(c2ccncc2)Nc2ccccc21 (stereo unspecified) | inconclusive [inhibitor, partial curve] | –
30 | Cc1ccc(Sc2ncccc2/C=N/O)cc1 | inconclusive [inhibitor, single point] | –
31 | Cc1cc(NC(=O)c2cccs2)ccc1NC(=O)Cc1ccccc1 | inconclusive [inhibitor, single point] | –
32 | O=C(c1ccc(N2CN(C(=O)c3ccco3)c3nc4ccccc4nc32)cc1)N1CCOCC1 | inconclusive [inhibitor, single point] | –
33 | CC(=O)c1ccc(CCCCCCCCCC(=O)O)s1 | inactive | –
34 | C[C@@H]1C(c2cccc(Cl)c2)=NN(c2ccccc2)[C@H]1C(=O)N1CCOC1=O | inconclusive [inhibitor, single point] | –
35 | COCC(C)N=CC1=C(O)CC(C)(C)CC1=O (stereo unspecified) | inconclusive [inhibitor, single point] | –
36 | CCCOc1ccc(C(O)(CCC)CCN2CCCCC2)cc1 (stereo unspecified) | active: 25.1 µM | –
37 | CC(C)=CC(=O)OCC(=O)Nc1ccc(Cl)cc1 | inconclusive [inhibitor, single point] | –
38 | COC(=O)CN(c1ccc(OCc2ccccc2)cc1)S(C)(=O)=O | inconclusive [inhibitor, single point] | –
39 | O=C(COC(=O)/C=C/c1ccc(OC(F)F)cc1)NCc1cccs1 | inactive | –
40 | Cn1c(-c2ccc3c(c2)OCO3)cnc1NCc1cccc(O)c1 | active: 12.6 µM | –
41 | Cc1ccc(C(=O)N2NC(c3ccc(F)cc3)C3C(=O)N(c4ccc(C)cc4)C(=O)C32)cc1 (stereo unspecified) | inactive | –
42 | CCN1C(=O)[C@H]2[C@H]3[C@H](O)[C@H](O)C/C(=N/O[C@@H]4O[C@@H](COC(C)=O)[C@@H](OC(C)=O)[C@@H](OC(C)=O)[C@H]4OC(C)=O)[C@@H]3CC[C@@H]2C1=O | – | inactive: 8.36% [at 13.5 µM]
43 | O=C(OCCN=C1NS(=O)(=O)c2ccccc21)C1CC(=O)N(c2ccc3ccccc3c2)C1 (stereo unspecified) | inconclusive [inhibitor, partial curve] | –
44 | Cc1ccc(S(=O)(=O)c2c(COC(=O)c3ccc(Cl)cc3)c(-c3ccccc3)nn2C)cc1 | inconclusive [inhibitor, partial curve] | –
45 | COc1ccc(/C=C(/NC(=O)c2ccccc2)C(=O)NC2CCS(=O)(=O)C2)cc1 (stereo unspecified) | inconclusive [inhibitor, single point] | –
46 | Cc1cc(C)cc(OCC(=O)N(Cc2cccs2)C2CCS(=O)(=O)C2)c1 (stereo unspecified) | inconclusive [inhibitor, partial curve] | –
